# Measured values reported in PubChem BioAssay AID686979 (National Center for Advancing Translational Sciences (NCATS), 2013).
# About 50,000 (12%) of roughly 420,000 compounds were called active. This list was built around the results that the source calls inconclusive (neither active nor inactive); the mix of calls is not that of the screen. Calls follow the shape of the dose curve; as a rule, active = well fitted inhibition curve with a large enough effect; inconclusive = small, poorly fitted or top-dose-only effect; inactive = flat fitted curve, though single readings scatter. No potency is given beside an inconclusive call; the fits are too rough.
# Experiment: qHTS for Inhibitors of human tyrosyl-DNA phosphodiesterase 1 (TDP1): qHTS in cells in presence of CPT; also: nearly all actives have a fitted effect of over 55% in size
# Conditions: chicken DT40 Tdp1-/-;hTDP1 cells + 20 nM CPT, ATP luminescence, 48 h; activity change, negative = growth inhibition: at 46.2 µM (top of the series) unless noted
# In short: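 Cell growth measured by CellTiter-Glo luminescence after a minimum 48 h, 37 C compound exposure with 20 nM CPT in Tdp1-knockout DT40 cells stably expressing hTDP1, seeded 400/well; qHTS titration format.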
# % is scaled to controls: 0 for no effect and ±100 for the full control effect; potency is read from the fitted curve at half-maximal effect; tags tell the direction and shape of the fitted curve.
SMILES,"activity change, negative = growth inhibition",Potency
COC(c1ccccc1)c1nnc(CCC(=O)N2CCCCCCC2)o1 (stereo not drawn),inactive: -5.51%,
O=C(c1cc2ccccc2oc1=O)N(Cc1ccc2c(c1)OCO2)Cc1ccco1,,"inconclusive [inhibitor, single point]"
CCOCCCNC(=O)c1ccc(-n2c(-c3ccccc3)cc3c2CCC(C)C3)cc1 (stereo not drawn),,"inconclusive [inhibitor, single point]"
CCN(CCn1cccn1)Cc1c(C(=O)N2CCCCCCC2)nc2ccc(Cl)cn12,inconclusive: -33.4% [inhibitor],
Cc1nn2c(SCC(=O)c3cccs3)cc(C(C)(C)C)nc2c1-c1ccccc1,,"inconclusive [inhibitor, single point]"
CCOc1ccc2nc(SCC(=O)N(C)C)[nH]c2c1,inactive: -19.6%,
O=C(CSc1nc2ccccc2c(=O)[nH]1)N1CCCCCC1,,"inconclusive [inhibitor, partial curve]"
COc1ccc(-c2csc3ncnc(Nc4cccc(OC)c4)c23)cc1,,"inconclusive [inhibitor, single point]"
Cn1ncc([N+](=O)[O-])c1C(=O)NC1CCCCCC1,inactive: 16.3%,
CC1CCCC(C)N1S(=O)(=O)c1ccc(NC(=O)CNC2CCCC2)cc1 (stereo not drawn),,"inconclusive [inhibitor, single point]"
CC(=O)N1c2ccc(S(=O)(=O)N3CCCC3C(=O)NCc3ccc(Cl)cc3)cc2CC1C (stereo not drawn),,active: 20.6 µM
COc1ccc(C(=O)Nc2ccc3nc(SCC(=O)N4CCc5ccccc54)sc3c2)cc1,,active: 2.91 µM
CC1=C(C(=O)OC2CCCCCCC2)C(c2cccc(O)c2)NC(=O)N1 (stereo not drawn),,"inconclusive [inhibitor, single point]"
O=C(NCC(c1cccs1)N1CCOCC1)c1ccccc1NS(=O)(=O)c1ccc(Cl)c([N+](=O)[O-])c1 (stereo not drawn),,"inconclusive [inhibitor, single point]"
CCOc1ccc2c(c1)/C(=C(\C(Cl)=C(Cl)Cl)[N+](=O)[O-])N2,,"inconclusive [inhibitor, partial curve, poor fit]"
Cc1ccc(S(=O)(=O)N2CCN(C(=O)CCC(=O)NCc3cccc(C(F)(F)F)c3)CC2)cc1,,"inconclusive [inhibitor, single point]"
Cc1ccc2c(c1)C(c1ccc(F)cc1)N(C(=O)c1ccc(S(=O)(=O)N3CCCCC3)cc1)CC(=O)N2 (stereo not drawn),,active: 18.4 µM
Cc1cc(N)c2cc(NC(=O)Nc3ccc4nc(C)cc(N)c4c3)ccc2n1,,"inconclusive [inhibitor, single point]"
